# The antibiotic and cytotoxicity screens of Wong et al. (2023)
# Some of the results follow.
# Legend:
# [1] = test system: HSkMC (human skeletal muscle cells); experiment: cytotoxicity call (relative viability < 0.9); conditions: 10 µM
# [2] = test system: HepG2; experiment: cytotoxicity call (relative viability < 0.9); conditions: 10 µM
# [3] = test system: S. aureus RN4220; experiment: growth inhibition call (relative growth <= 0.2); conditions: 50 µM
Compound,cytotoxicity call [1],cytotoxicity call [2],growth inhibition call [3]
COc1ccc(S(=O)(=O)N(C)C[C@H]2OCCCC[C@H](C)Oc3ccc(NS(=O)(=O)c4cn(C)cn4)cc3C(=O)N([C@@H](C)CO)C[C@@H]2C)cc1,inactive,inactive,inactive
OC1OC(c2ccc(Cl)c(Cc3ccc(OC4CCOC4)cc3)c2)C(O)C(O)C1O (configuration not stated),inactive,inactive,inactive
C[C@H](CO)N1C[C@H](C)[C@@H](CN(C)Cc2ccncc2)Oc2ccc(NC(=O)Nc3cccc4ccccc34)cc2C1=O,inactive,inactive,inactive
COc1ccc(S(=O)(=O)N(C)C[C@H]2Oc3ccc(NC(=O)Cn4cnnn4)cc3CC(=O)N([C@@H](C)CO)C[C@@H]2C)cc1,inactive,inactive,inactive
COc1ccc(NC(=O)N(C)C[C@@H]2OCCCC[C@@H](C)Oc3ccc(NS(=O)(=O)c4ccc(F)cc4)cc3C(=O)N([C@H](C)CO)C[C@H]2C)cc1,inactive,inactive,inactive
COCC(=O)N(C)C[C@H]1Oc2cc(C#CCC3CCCC3)ccc2S(=O)(=O)N([C@H](C)CO)C[C@@H]1C,inactive,inactive,inactive
O=C(C[C@H]1C=C[C@H](NC(=O)Cc2ccccn2)[C@H](CO)O1)NCCc1ccncc1,inactive,inactive,inactive
Cc1noc(C)c1S(=O)(=O)Nc1ccc2c(c1)CC(=O)N([C@@H](C)CO)C[C@H](C)[C@@H](CN(C)C(=O)Nc1ccccc1)O2,inactive,inactive,inactive
COc1ccc(S(=O)(=O)N(C)C[C@H]2OCCCC[C@@H](C)Oc3ccc(NS(=O)(=O)c4ccc(Cl)cc4)cc3C(=O)N([C@H](C)CO)C[C@@H]2C)cc1,inactive,inactive,inactive
CCOC(=O)c1cnn2c(=O)cc(C)[nH]c12,inactive,inactive,inactive
C[C@H](CO)N1C[C@H](C)[C@@H](CN(C)C(=O)Nc2ccc(F)cc2)Oc2ccc(NC(=O)Cn3cnnn3)cc2CC1=O,inactive,inactive,inactive
C[C@H](CO)N1C[C@H](C)[C@H](CN(C)C(=O)Nc2ccc3c(c2)OCCO3)OCc2cnnn2CCCC1=O,inactive,inactive,inactive
C[C@@H]1CCCCO[C@H](CN(C)C(=O)C2CCCCC2)[C@@H](C)CN([C@H](C)CO)C(=O)c2cc(NC(=O)Cc3ccccc3)ccc2O1,inactive,inactive,inactive
c1ccc(CNc2ccc3c(ccc4c5ccccc5[nH]c34)n2)cc1,active,active,inactive
Cc1noc(C)c1NC(=O)N(C)C[C@@H]1Oc2c(NC(=O)C3CC3)cccc2C(=O)N([C@@H](C)CO)C[C@H]1C,inactive,inactive,inactive
C[C@@H]1CN([C@H](C)CO)C(=O)Cc2cc(NC(=O)C3CC3)ccc2O[C@H]1CN(C)S(=O)(=O)c1cn(C)cn1,inactive,inactive,inactive
C[C@@H]1CCCCO[C@@H](CN(C)Cc2ccc(Cl)c(Cl)c2)[C@@H](C)CN([C@@H](C)CO)C(=O)c2cc(NS(=O)(=O)c3cn(C)cn3)ccc2O1,inactive,inactive,inactive
NC(=O)CSc1nnnn1-c1cccc(O)c1,inactive,inactive,inactive
C[C@H]1COC(=O)[C@H](NC(=O)OCC2c3ccccc3-c3ccccc32)CC=CC[C@@H](CC(=O)NCCO)C(=O)N1,inactive,inactive,inactive
C[C@@H]1CN([C@H](C)CO)C(=O)c2cc(NC(=O)Cn3cnnn3)ccc2O[C@@H]1CN(C)Cc1ccncc1,inactive,inactive,inactive
C[C@H]1CN([C@@H](C)CO)S(=O)(=O)c2ccc(C#Cc3ccccc3)cc2O[C@@H]1CN(C)S(=O)(=O)c1cn(C)cn1,inactive,inactive,inactive
C[C@@H]1CN([C@@H](C)CO)C(=O)Cc2cc(NS(=O)(=O)c3cn(C)cn3)ccc2O[C@@H]1CN(C)C(=O)Nc1ccc2c(c1)OCO2,inactive,inactive,inactive
O=C(O)c1cccc(O)c1O,inactive,inactive,inactive
C[C@H]1CN([C@@H](C)CO)C(=O)Cc2cc(NC(=O)Nc3ccccc3)ccc2O[C@H]1CN(C)Cc1ccc(Cl)c(Cl)c1,active,active,inactive
C[C@H]1CN([C@@H](C)CO)C(=O)c2cccc(NC(=O)C3CCCCC3)c2O[C@@H]1CN(C)S(=O)(=O)c1cn(C)cn1,inactive,inactive,inactive
COc1ccc2c3c([nH]c2c1)[C@H](CO)N(CC1CCCCC1)C[C@]13CN(C1)C(=O)Nc1cccc(c1)F,inactive,inactive,inactive
C[C@H](CO)N1C[C@H](C)[C@@H](CN(C)C(=O)c2cccc(F)c2)Oc2cc(-c3cncnc3)ccc2S1(=O)=O,inactive,inactive,inactive

Compound,cytotoxicity call [1],cytotoxicity call [2],growth inhibition call [3]
Cc1noc(C)c1S(=O)(=O)N(C)C[C@@H]1Oc2ccc(NS(C)(=O)=O)cc2C(=O)N([C@H](C)CO)C[C@@H]1C,inactive,inactive,inactive
Cn1c(=O)n2n(c1=O)[C@H](C1CC1)C=C1CN3[C@@H]([C@H](CCn4cc(-c5cccc(/C=C/C(=O)NO)c5)nn4)OC(=O)[C@@H]3Cc3ccccc3)[C@@H]12,inactive,inactive,inactive
C[C@@H]1CN([C@H](C)CO)C(=O)Cc2cc(NC(=O)Nc3cccc4ccccc34)ccc2O[C@@H]1CN(C)C(=O)Nc1ccc(F)cc1,inactive,inactive,inactive
C[C@@H]1CN([C@H](C)CO)C(=O)c2cc(NC(=O)Cn3cnnn3)ccc2O[C@@H]1CN(C)Cc1ccc(-c2ccccc2)cc1,inactive,inactive,inactive
Cc1noc(C)c1NC(=O)Nc1cccc2c1O[C@@H](CN(C)C(=O)Nc1ccc(C(F)(F)F)cc1)[C@H](C)CN([C@H](C)CO)C2=O,inactive,inactive,inactive
C[C@@H]1CN([C@@H](C)CO)C(=O)c2cccc(NS(=O)(=O)c3cn(C)cn3)c2O[C@@H]1CN(C)S(=O)(=O)c1cccs1,inactive,inactive,inactive
COc1ccc(NC(=O)N(C)C[C@@H]2OCCCC[C@@H](C)Oc3ccc(NC(=O)NC4CCCCC4)cc3C(=O)N([C@H](C)CO)C[C@@H]2C)cc1,inactive,inactive,inactive
C=CC[C@@H](CC(=O)N(CCO)Cc1ccccc1)C(=O)N[C@H](COC(=O)[C@H](CC=C)CC(=O)OC(C)(C)C)Cc1c[nH]c2ccccc12,inactive,inactive,inactive
C[C@H](CO)N1C[C@H](C)[C@H](CN(C)S(=O)(=O)c2ccc(Cl)cc2)OCCCC[C@H](C)Oc2ccc(NS(=O)(=O)c3ccccc3)cc2C1=O,inactive,active,inactive
CC(C)NC(=O)Nc1cccc2c1O[C@@H](CN(C)C(=O)NC1CCCCC1)[C@@H](C)CN([C@H](C)CO)C2=O,inactive,inactive,inactive
O=c1[nH]c(=O)c2[nH]c(=O)[nH]c2[nH]1,inactive,inactive,inactive
C[C@@H]1CN([C@H](C)CO)C(=O)c2cc(NS(C)(=O)=O)ccc2O[C@H]1CN(C)S(=O)(=O)c1ccc(Cl)cc1,inactive,inactive,inactive
CC1(C)C=Cc2cc(C#N)ccc2O1,inactive,inactive,inactive
N#Cc1cnc2c(C(N)=O)cnn2c1N,inactive,inactive,inactive
COc1ccc(S(=O)(=O)Nc2ccc3c(c2)C(=O)N([C@H](C)CO)C[C@H](C)[C@H](CN(C)Cc2ccc4c(c2)OCO4)OCCCC[C@H](C)O3)cc1,inactive,active,inactive
CC(C)NC(=O)Nc1cccc2c1O[C@H](CN(C)Cc1ccc3c(c1)OCO3)[C@H](C)CN([C@H](C)CO)C2=O,inactive,inactive,inactive
C[C@@H]1CN([C@@H](C)CO)C(=O)c2cccc(NC(=O)c3nc4ccccc4s3)c2O[C@@H]1CN(C)Cc1ccc(-c2ccccc2)cc1,inactive,inactive,inactive
Cc1ccc(S(=O)(=O)N(C)C[C@H]2Oc3cc(C#Cc4ccncc4)ccc3S(=O)(=O)N([C@@H](C)CO)C[C@H]2C)cc1,inactive,active,inactive
CC(S)C(=O)NCC(=O)O (configuration not stated),inactive,inactive,inactive
CC(C)(C)NCc1ccsc1,inactive,inactive,inactive
O=C(O)/C=C/C(=O)NCc1ccccc1,inactive,inactive,inactive
COc1ccc(NC(=O)N(C)C[C@@H]2OCc3cnnn3CCCC(=O)N([C@H](C)CO)C[C@@H]2C)c(OC)c1,inactive,inactive,inactive
Cc1noc(C)c1NC(=O)Nc1ccc2c(c1)C(=O)N([C@@H](C)CO)C[C@@H](C)[C@H](CN(C)C(=O)Nc1ccccc1)OCCCC[C@H](C)O2,inactive,inactive,inactive
C[C@@H]1CN([C@H](C)CO)C(=O)c2cc(NC(=O)NC3CCCCC3)ccc2O[C@@H](C)CCCCO[C@@H]1CN(C)C(=O)NC1CCCCC1,inactive,inactive,inactive
C[C@@H]1CN([C@@H](C)CO)C(=O)c2cc(NS(=O)(=O)c3cccs3)ccc2O[C@H]1CN(C)Cc1ccc(Oc2ccccc2)cc1,inactive,inactive,inactive
C[C@@H]1CCCCO[C@@H](CN(C)S(=O)(=O)c2cccs2)[C@H](C)CN([C@H](C)CO)C(=O)c2cc(NC(=O)c3ccccc3)ccc2O1,inactive,active,inactive
C[C@@H]1CCCCO[C@H](CN(C)C(=O)Nc2ccc(F)cc2)[C@@H](C)CN([C@@H](C)CO)C(=O)c2cc(NC(=O)c3ccncc3)ccc2O1,inactive,inactive,inactive
